US20250223354A1 (BIOTHEUS, published 2025)
Values belong to the binder of their own block, whether it stands above or below them.

Experiments:
human PVRIG-his protein = target: T1, human PVRIG-his protein (human, UniProt Q6DKI7 41-171, limits assumed); test: BLI (ForteBio), antibody on AHQ sensor, 100 nM antigen, monovalent, 1:1 model
T1 construct: not shown: his tag
T1 sequence: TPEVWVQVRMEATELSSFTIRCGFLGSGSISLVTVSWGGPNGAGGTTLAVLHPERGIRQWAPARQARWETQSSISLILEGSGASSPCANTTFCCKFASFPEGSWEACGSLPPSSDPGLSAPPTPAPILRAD

[1] = target: T2, cynomolgus monkey TIGIT-his protein (cynomolgus monkey); test: as above
T2 construct: also called Cynomolgus TIGIT-his; not shown: his tag

[2] = target: T3, cynomolgus monkey PVRIG-Fc protein (cynomolgus monkey, UniProt Q6DKI7 41-171 (human entry), limits assumed); test: BLI (ForteBio), antibody on AHQ sensor, 100 nM Fc antigen, bivalent, 1:1 model
T3 construct: no signal peptide limits stated; Bivalent antigen; also called Cynomolgus PVRIG-hFc; not shown: human Fc (hFc)
T3 chain: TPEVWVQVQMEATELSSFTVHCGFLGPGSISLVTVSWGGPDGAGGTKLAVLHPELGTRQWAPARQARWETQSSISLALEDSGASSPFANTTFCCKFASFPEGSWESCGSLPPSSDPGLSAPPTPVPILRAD

[3] = target: T4, human PVRIG protein (coated, co-binding ELISA) (human, UniProt Q6DKI7 41-171, limits assumed); test: co-binding (sandwich) ELISA: coated human PVRIG protein, antibody titrated, detected with biotin-labeled TIGIT protein 1 ug/mL and SA-HRP, absorbance 450 nm
T4 construct: Whole entry named
T4 sequence (looked up): T1 sequence

[4] = target: T5, human PVRIG expressed on cells (human, UniProt Q6DKI7 41-326); test: flow cytometry, CHO-huPVRIG cells
T5 construct: whole, on cells; cDNA encoding human PVRIG in pCHO1.0 for CHO cells; also called CHO-huPVRIG cells
T5 sequence (looked up): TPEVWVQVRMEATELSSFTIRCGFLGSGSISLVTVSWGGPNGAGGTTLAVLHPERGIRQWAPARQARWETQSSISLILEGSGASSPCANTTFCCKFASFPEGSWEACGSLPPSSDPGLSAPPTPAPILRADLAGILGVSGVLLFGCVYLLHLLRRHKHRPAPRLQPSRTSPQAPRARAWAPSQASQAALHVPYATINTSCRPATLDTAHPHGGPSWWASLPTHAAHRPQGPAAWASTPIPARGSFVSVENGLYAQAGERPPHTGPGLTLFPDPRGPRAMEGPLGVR

[5] = target: T6, human PVRIG protein with mouse IgG2a Fc tag (human; mouse, UniProt Q6DKI7 41-171, limits assumed); test: flow cytometry, competition: human PVRIG-mouse IgG2a Fc (1 ug/mL) binding to CHO-huCD112 cells
T6 construct: Whole entry named; not shown: mouse IgG2a Fc tag
T6 sequence (looked up): T1 sequence

[6] = target: T7, cynomolgus PVRIG overexpressed on CHO cells (cynomolgus, UniProt A0A2K5WVV8 1-322); test: flow cytometry, CHO-cynoPVRIG cells
T7 construct: whole, on cells; also called CHO-cynoPVRIG cells
T7 sequence: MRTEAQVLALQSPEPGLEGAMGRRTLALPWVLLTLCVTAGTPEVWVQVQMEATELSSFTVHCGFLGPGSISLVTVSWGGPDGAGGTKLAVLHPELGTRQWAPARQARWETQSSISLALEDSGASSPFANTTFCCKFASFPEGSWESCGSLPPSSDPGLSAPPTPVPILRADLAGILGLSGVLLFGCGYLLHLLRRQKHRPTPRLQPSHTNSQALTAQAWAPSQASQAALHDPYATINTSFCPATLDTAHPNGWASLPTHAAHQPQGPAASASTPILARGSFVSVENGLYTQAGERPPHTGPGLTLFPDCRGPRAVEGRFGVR

[7] = target: T8, mouse TIGIT overexpressed on CHO cells (mouse, UniProt P86176 29-249); test: flow cytometry, competition with mouse CD155-mouse IgG2a Fc (2 ug/mL) on CHO-muTIGIT cells
T8 construct: whole, on cells; also called CHO-muTIGIT cells
T8 sequence (looked up): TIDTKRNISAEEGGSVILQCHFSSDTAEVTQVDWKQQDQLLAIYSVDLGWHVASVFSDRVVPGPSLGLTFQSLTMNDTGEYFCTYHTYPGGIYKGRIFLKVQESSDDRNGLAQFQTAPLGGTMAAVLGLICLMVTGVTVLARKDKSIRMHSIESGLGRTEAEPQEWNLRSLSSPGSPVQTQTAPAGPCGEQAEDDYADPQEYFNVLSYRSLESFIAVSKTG

[8] = target: T9, mouse PVRIG overexpressed on CHO cells (mouse, UniProt A0A1B0GS01 1-234); test: flow cytometry, CHO-muPVRIG cells
T9 construct: also called CHO-muPVRIG cells
T9 sequence: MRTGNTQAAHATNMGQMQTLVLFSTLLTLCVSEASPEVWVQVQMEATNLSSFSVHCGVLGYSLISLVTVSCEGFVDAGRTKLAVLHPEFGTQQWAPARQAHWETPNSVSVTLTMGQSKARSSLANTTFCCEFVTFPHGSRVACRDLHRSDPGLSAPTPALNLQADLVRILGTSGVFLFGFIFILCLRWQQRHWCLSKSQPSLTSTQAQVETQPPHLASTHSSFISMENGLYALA

[9] = target: T10, cynomolgus TIGIT overexpressed on CHO cells (cynomolgus, UniProt A0A7N9I9V4 89-312); test: flow cytometry, CHO-cynoTIGIT cells
T10 construct: whole, on cells; also called CHO-cynoTIGIT cells

[10] = target: T8, mouse TIGIT overexpressed on CHO cells; test: flow cytometry, CHO-muTIGIT cells
[11] = target: T2, cynomolgus monkey TIGIT-his protein; test: BLI (ForteBio), antibody on AHQ sensor, 100 nM antigen, monovalent; W.B = weak binding
T2 sequence (chain, as listed by the source): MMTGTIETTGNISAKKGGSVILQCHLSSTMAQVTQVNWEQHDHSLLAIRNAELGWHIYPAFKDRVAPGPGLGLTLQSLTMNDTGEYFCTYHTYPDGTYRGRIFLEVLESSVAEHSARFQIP

T10 sequence (A0A7N9I9V4 entry or part of it): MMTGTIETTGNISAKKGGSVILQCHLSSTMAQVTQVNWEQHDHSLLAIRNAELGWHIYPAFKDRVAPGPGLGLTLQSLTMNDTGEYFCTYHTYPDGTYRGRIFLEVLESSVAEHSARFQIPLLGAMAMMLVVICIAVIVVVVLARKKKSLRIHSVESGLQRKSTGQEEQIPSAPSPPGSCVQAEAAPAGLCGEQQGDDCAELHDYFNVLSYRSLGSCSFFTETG

Kd (human PVRIG-his protein): 0.102 nM
Kd [1]: 29 nM
Kd [2]: 0.236 nM
EC50 (read off the curve) [3]: ~0.3 nM
EC50 [4]: 2.03 nM
IC50 [5]: 0.988 nM
EC50 [6]: 0.758 nM
IC50 [7]: 3.48 nM
EC50 [8]: 3.63 nM
EC50 [9]: 3.5 nM
EC50 [10]: 8.06 nM
B1: anti-TIGIT-anti-PVRIG bispecific antibody TP-003-009 (bispecific antibody)
heavy: QVQLVQSGAEVKKPGSSVKVSCKASGGTESVDAISWVRQAPGQGLEWMGDIIPFFDTDYAQKFQGRVTITADESTSTAYMELSSLRSEDTAVYYCAREGGTSWTHFFDLWGRGTLVTVSSASTKGPSVFPLAPSSKSTSGGTAALGCLVKDYFPEPVTVSWNSGALTSGVHTFPAVLQSSGLYSLSSVVTVPSSSLGTQTYICNVNHKPSNTKVDKKV[human IgG1 Fc not given here]GGGSGGGGSGQLQLQESGPGLVKPAETLSLTCTVSGGSISSYDHYWTWIRQPPGKCLEWIGTVYYSGSTFHNPSLKSRVTIPVDTSKNQFSLKLSSVTAADTAVYYCARVGPDVSHPPFDYWGQGTLVTVSSGGGGSGGGGSGGGGSGGGGSG[about 100 residues not given here]
light: [about 200 residues not given here]
notes: human IgG1; made in HEK293; also called Anti-TIGIT/PVRIG bispecific antibody TP-003-009

binding result [11]: binds
Kd (human PVRIG-his protein): 0.0747 nM
Kd [2]: 0.31 nM
EC50 (read off the curve) [3]: ~0.6 nM
EC50 [4]: 3.11 nM
IC50 [5]: 2 nM
EC50 [6]: 1.72 nM
EC50 [8]: 172 nM
EC50 [9]: 60.5 nM
binding result [10]: no binding
B2: anti-TIGIT-anti-PVRIG bispecific antibody TP-001-002-003 (bispecific antibody, human IgG1, kappa)
heavy 1: QVQLVQSGAEVKKPGASVKVSCKASGYAFTGYYMHWVRQAPGQGLEWMGSIIPFSGEANYAQKFQGRVTMTRDTSISTAYMELSRLRSDDTAVYYCARGPGSLDRLWYYYYGMDVWGQGTTVTVSS[human IgG1 constant region with changes not given here]
heavy 2: QVQLVQSGAEVKKPGSSVKVSCKASGGTESVDAISWVRQAPGQGLEWMGDIIPFFDTDYAQKFQGRVTITADESTSTAYMELSSLRSEDTAVYYCAREGGTSWTHFFDLWGRGTLVTVSSASTKGPSVFPLAPSSKSTSGGTAALGCLVKDYFPEPVTVSWNSGALTSGVHTFPAVLQSSGLYSLSSVVTVPSSSLGTQTYICNVNHKPSNTKVDKKV[human IgG1 Fc with changes not given here]
light: [about 200 residues not given here]
notes: human IgG1; made in HEK293; also called Anti-TIGIT/PVRIG bispecific antibody TP-001-002-003
